Values marked as one replicate rest on one cluster of the flow cell; about a third of the high ones do not repeat.
Test system: ATP
Test: switch fluorescence ratio, 500 uM ATP over buffer (Cy3 cluster intensity, sum of 5 cycles each) (fold (ratio)); higher = stronger signal-on switching upon ATP binding; sequences stand for … in TCGTCGGCAGCGTCAGATGTGTATAAGAGACAGTTTTTTTTTTTTTTTTTTTTTTTTT…TC
Conditions: aptamer strand: ATP DNA aptamer (quencher-CACCTGGGGGAGTATTGCGGAGGAAGG + anchor), 100 nM annealed; ATP concentration: 500 uM; one replicate
How it was run: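 Per cluster, summed Cy3 intensity from the target cycles was divided by that from the buffer cycles to give the fluorescence ratio, then averaged per switch-domain sequence. Clusters outside 100-1000 RFU were excluded. The Cy3-labelled switching-strand clusters, on a modified Illumina MiSeq flow-cell, were annealed to 100 nM quencher-labelled ATP aptamer and imaged in selection buffer, then after 15 min with 500 uM ATP at 22 °C, for five cycles with NaOH stripping and re-annealing between them.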
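Further: ATP exposure 15 min at 22 °C before imaging.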

CTACACGTG
switch fluorescence ratio: 1.04

CGAGACCATA
switch fluorescence ratio: 1.09

GAAGCGACTG
switch fluorescence ratio: 0.925

ATGAACGAGG
switch fluorescence ratio: 0.998

GTCCGTATGA
switch fluorescence ratio: 1.03

CCCCTCCCTT
switch fluorescence ratio: 1.11

TTAGCTGGAT
switch fluorescence ratio: 0.97

CGCTCGAGAT
switch fluorescence ratio: 1.04

AGATACAGT
switch fluorescence ratio: 1.04

CATACTATGT
switch fluorescence ratio: 1.02

TTAGAATCTT
switch fluorescence ratio: 1.04

AAACGACGGG
switch fluorescence ratio: 1.06

GCTACCATCA
switch fluorescence ratio: 1.02

GATCTTCCTA
switch fluorescence ratio: 1.12

GACGTTGGCG
switch fluorescence ratio: 1.05

TTTAAGGGAG
switch fluorescence ratio: 0.983

GCTCTTTGGA
switch fluorescence ratio: 0.975

TGAGTGGGTG
switch fluorescence ratio: 1.02

ACGCCGAGCA
switch fluorescence ratio: 1.08

TGCTAGAAAA
switch fluorescence ratio: 0.976

GCGGTTTGTT
switch fluorescence ratio: 0.962

TTTTATTCAT
switch fluorescence ratio: 1.02

GTTATGGGCC
switch fluorescence ratio: 0.992

TGTAGGCACT
switch fluorescence ratio: 1.02

ATGAAGAAAC
switch fluorescence ratio: 1.03

AAGTCGGC
switch fluorescence ratio: 0.952

TATAGGCCGA
switch fluorescence ratio: 0.919

CGCTAGTTCG
switch fluorescence ratio: 1.02

AAGGAATTG
switch fluorescence ratio: 1.07

CATCCGGCGT
switch fluorescence ratio: 1.52

GGTTCAGATC
switch fluorescence ratio: 1

TGTGTCCGTT
switch fluorescence ratio: 1.01

GGCTAGAGTG
switch fluorescence ratio: 1.01

AGTTCGGCAT
switch fluorescence ratio: 0.956

CGCGTATTAG
switch fluorescence ratio: 1.02

AGCATCGATT
switch fluorescence ratio: 1.02

TACGACACTC
switch fluorescence ratio: 1.47

CTCACATCGT
switch fluorescence ratio: 0.989

CTATGAACTC
switch fluorescence ratio: 1.02

TGGAGAATCG
switch fluorescence ratio: 1.01

ATCTTAAACA
switch fluorescence ratio: 0.973

GCATGACCGG
switch fluorescence ratio: 0.959

GTGGCCTGGC
switch fluorescence ratio: 0.976

AATGTGTAAG
switch fluorescence ratio: 0.988

ATATAACTAC
switch fluorescence ratio: 1.03

TCAATGTACG
switch fluorescence ratio: 1.07

GACCTATGGC
switch fluorescence ratio: 1.06

TTTGTAACTC
switch fluorescence ratio: 0.99

GTGAACGGTT
switch fluorescence ratio: 1.01

ACCGAGGGTT
switch fluorescence ratio: 1.02

GTTCGGGATG
switch fluorescence ratio: 1

ATCGTAGTTT
switch fluorescence ratio: 0.976

ACGTACCTTA
switch fluorescence ratio: 1.4

GAAGCTTTGT
switch fluorescence ratio: 0.996

GTTGTGTGCA
switch fluorescence ratio: 0.949

TGGTATTTCA
switch fluorescence ratio: 0.992

ATTCGGTTAG
switch fluorescence ratio: 1.04

AGAGTGGGGA
switch fluorescence ratio: 1.04

AAGCGTTC
switch fluorescence ratio: 1.03

ATAAGACAGA
switch fluorescence ratio: 1.04

TTTAAAAAA
switch fluorescence ratio: 1.05

GCTACTCTCA
switch fluorescence ratio: 1.17

GGGCCTGTTC
switch fluorescence ratio: 0.942

AACGGCCAAT
switch fluorescence ratio: 1.07

GAAGTCGTAC
switch fluorescence ratio: 1.18

CGCTTCATGA
switch fluorescence ratio: 1.03

CTGTTGGTGT
switch fluorescence ratio: 1.03

AAGTCGGTA
switch fluorescence ratio: 1.06

CTAACGGGCG
switch fluorescence ratio: 0.951

GGATGGTGAC
switch fluorescence ratio: 0.961

CCAAGCAACG
switch fluorescence ratio: 1.73

TTTATGATGT
switch fluorescence ratio: 1.01

CTAATCGTGG
switch fluorescence ratio: 0.978

TGTTATAC
switch fluorescence ratio: 1.1

TGGTAGTTGG
switch fluorescence ratio: 0.989

GGGTATCAGT
switch fluorescence ratio: 0.969

ATTAGAACGC
switch fluorescence ratio: 1.08

TAGTGGGCGT
switch fluorescence ratio: 0.999

ATGCAGCAAG
switch fluorescence ratio: 1.86

CGTGCTCTTA
switch fluorescence ratio: 1

AGGCTCGTTT
switch fluorescence ratio: 0.994

TGAAAATCGC
switch fluorescence ratio: 1.01

AATCGAATC
switch fluorescence ratio: 0.997

CGATAAAGAT
switch fluorescence ratio: 1.01

CATAGCGGTC
switch fluorescence ratio: 1.24

ACAAAACCAG
switch fluorescence ratio: 1.15

CCGATTTTCG
switch fluorescence ratio: 1.02

ACATTTGCGT
switch fluorescence ratio: 0.962

GTAGAAATTA
switch fluorescence ratio: 1

ATAACGTGTA
switch fluorescence ratio: 0.987

CCTGGGAGAG
switch fluorescence ratio: 1.03

AATGTAGTGG
switch fluorescence ratio: 0.994

AAAACATATA
switch fluorescence ratio: 1.02

AGGGAGTGGC
switch fluorescence ratio: 1.06

TCGTGGTGAC
switch fluorescence ratio: 0.955

CTAGTAAGT
switch fluorescence ratio: 1.02

ATCCGTGCCT
switch fluorescence ratio: 1.04

AGCTGGACTA
switch fluorescence ratio: 1.02

ACTTCCTTTG
switch fluorescence ratio: 1.7

TGGTTTCTGG
switch fluorescence ratio: 1

GTTTTGTGAC
switch fluorescence ratio: 1.05

CAGTGGTAGG
switch fluorescence ratio: 1.03

TCACGCATAG
switch fluorescence ratio: 1.47

GGGTATGTTC
switch fluorescence ratio: 0.957

ACGGCCTCGG
switch fluorescence ratio: 1.03

CGCGTCCCTG
switch fluorescence ratio: 0.97

AGCCAGTAA
switch fluorescence ratio: 0.985

CAGTGGAGAG
switch fluorescence ratio: 1

TTTTCTCTGA
switch fluorescence ratio: 1.01

GATGTGCTGG
switch fluorescence ratio: 0.958

AATCTATTAG
switch fluorescence ratio: 0.993

ATGAGCATCG
switch fluorescence ratio: 0.976

TCGGGTATGC
switch fluorescence ratio: 0.985

TAGTCCATGG
switch fluorescence ratio: 0.96

CAGGGATGC
switch fluorescence ratio: 1.15

CGCGACAAGT
switch fluorescence ratio: 0.995

GGGGTCATTA
switch fluorescence ratio: 1.06

ATAGTATAAA
switch fluorescence ratio: 0.99

CGATGGGAGA
switch fluorescence ratio: 0.974

TAAGTTAAAA
switch fluorescence ratio: 0.968

AGGACAACAG
switch fluorescence ratio: 1.03

GGGTTTTCG
switch fluorescence ratio: 0.949

AATACATATG
switch fluorescence ratio: 0.997

TGGATCTCCG
switch fluorescence ratio: 1.21

CGACGAAGCG
switch fluorescence ratio: 1.01

GGCGCTGACG
switch fluorescence ratio: 0.977

GCTCGCCCC
switch fluorescence ratio: 1.13

GGTTTGTTCT
switch fluorescence ratio: 0.957

CAGGAGGGTG
switch fluorescence ratio: 1.06

GATTCGTTGT
switch fluorescence ratio: 1

GCACACCCTT
switch fluorescence ratio: 1.19

AAGGTCAACC
switch fluorescence ratio: 1.03

GGTTATTGAA
switch fluorescence ratio: 1.03

GGTCAGCTAG
switch fluorescence ratio: 0.99

GAACTCGTGT
switch fluorescence ratio: 1.04

CAGTTAAAT
switch fluorescence ratio: 0.989

CACATAGGGG
switch fluorescence ratio: 1.14

AGCCGCTCGC
switch fluorescence ratio: 1.18

ATTGGTTGAA
switch fluorescence ratio: 0.986

GGGGCAACAA
switch fluorescence ratio: 1.06

AAAATTCTAC
switch fluorescence ratio: 1.04

CATCCGTGTT
switch fluorescence ratio: 2.3

GATATACCGT
switch fluorescence ratio: 1.03

ATCTATCCGG
switch fluorescence ratio: 0.979

TCAAGTCTTT
switch fluorescence ratio: 0.973

AGCCTCTGGG
switch fluorescence ratio: 0.979

CCTGGGGGAC
switch fluorescence ratio: 1.04

CGCCCTGTCG
switch fluorescence ratio: 1.09

AAAGCTAGCA
switch fluorescence ratio: 0.99

GAAGAGGCGC
switch fluorescence ratio: 1.01

ACGTGCTCAA
switch fluorescence ratio: 1.11

AATCGGAATG
switch fluorescence ratio: 0.967

AAGCGTTCTT
switch fluorescence ratio: 0.992

CAAATTGTCT
switch fluorescence ratio: 0.98

ATAAAAGATA
switch fluorescence ratio: 1.01

GGGCGGCAGA
switch fluorescence ratio: 0.988

CGAGCACAAG
switch fluorescence ratio: 1.4

AGAAGCGGTG
switch fluorescence ratio: 1.01

CGGCTTTGTC
switch fluorescence ratio: 0.998

CAATATGTCT
switch fluorescence ratio: 1.01

TTCCGAAGGC
switch fluorescence ratio: 1.22

GGGGAAGTAA
switch fluorescence ratio: 1.04

ACAACTCTCG
switch fluorescence ratio: 1.04

GAGATACACC
switch fluorescence ratio: 1.14

AGGAGACAAA
switch fluorescence ratio: 1.07

GAGTTGTGTT
switch fluorescence ratio: 1.04

GTATGAACAG
switch fluorescence ratio: 0.959

GCGCAAGAA
switch fluorescence ratio: 1.2

ACTGCGCGGA
switch fluorescence ratio: 1.23

TTGGGCTTTA
switch fluorescence ratio: 1.04

TGGGACTAGG
switch fluorescence ratio: 1

TTATGAGCCA
switch fluorescence ratio: 0.998

ATTGATTGTC
switch fluorescence ratio: 1.03

ATGTGTACCG
switch fluorescence ratio: 1.06

TAAAGGCAAC
switch fluorescence ratio: 1.07

ACTTTGTCGT
switch fluorescence ratio: 0.95

GCCTTTAAGT
switch fluorescence ratio: 0.976

TCCCTAGGCG
switch fluorescence ratio: 1.26

CGCAGTGGTG
switch fluorescence ratio: 1.07

TGGTAGAATT
switch fluorescence ratio: 0.981

TGGAAACGAA
switch fluorescence ratio: 0.988

TAATTCATGT
switch fluorescence ratio: 1.04

GAAATCTAGT
switch fluorescence ratio: 0.968

ACGTGGGCAC
switch fluorescence ratio: 1.04

GAATTCTAGC
switch fluorescence ratio: 0.979

CTTTCGAGTG
switch fluorescence ratio: 0.942

AGGATTATG
switch fluorescence ratio: 0.987

CGCTGAGTTA
switch fluorescence ratio: 0.993

ATGTGCACCT
switch fluorescence ratio: 1.02

GACTCGCCCG
switch fluorescence ratio: 0.969

GGGACCTTTA
switch fluorescence ratio: 1.03

CCAGACGGCA
switch fluorescence ratio: 1.05

GTTCTGCGCT
switch fluorescence ratio: 1.01

TTGCCTCGC
switch fluorescence ratio: 0.995

AACGACGGAT
switch fluorescence ratio: 1.08

GGCTTTAGTC
switch fluorescence ratio: 0.986

ACACTTACGG
switch fluorescence ratio: 1.59

CACTTTTTCG
switch fluorescence ratio: 1.01

AACTTGCTCA
switch fluorescence ratio: 1.06

GTGTTATCTC
switch fluorescence ratio: 0.984

GAGGGCCA
switch fluorescence ratio: 0.993

From the supplement of paper PMC10126150
